The campaign covered roughly 310,000 compounds. About 2,200 (0.71%) showed an effect of 50% or more. The effect is printed as a negative number. The list shows a part of the results.
Target: human ether-à-go-go-related gene (hERG) potassium channel (human, UniProt Q12809)
Assay: primary screen, population patch clamp on CHO cells stably expressing hERG

Sequence of human ether-à-go-go-related gene (hERG) potassium channel (Q12809 whole entry, looked up): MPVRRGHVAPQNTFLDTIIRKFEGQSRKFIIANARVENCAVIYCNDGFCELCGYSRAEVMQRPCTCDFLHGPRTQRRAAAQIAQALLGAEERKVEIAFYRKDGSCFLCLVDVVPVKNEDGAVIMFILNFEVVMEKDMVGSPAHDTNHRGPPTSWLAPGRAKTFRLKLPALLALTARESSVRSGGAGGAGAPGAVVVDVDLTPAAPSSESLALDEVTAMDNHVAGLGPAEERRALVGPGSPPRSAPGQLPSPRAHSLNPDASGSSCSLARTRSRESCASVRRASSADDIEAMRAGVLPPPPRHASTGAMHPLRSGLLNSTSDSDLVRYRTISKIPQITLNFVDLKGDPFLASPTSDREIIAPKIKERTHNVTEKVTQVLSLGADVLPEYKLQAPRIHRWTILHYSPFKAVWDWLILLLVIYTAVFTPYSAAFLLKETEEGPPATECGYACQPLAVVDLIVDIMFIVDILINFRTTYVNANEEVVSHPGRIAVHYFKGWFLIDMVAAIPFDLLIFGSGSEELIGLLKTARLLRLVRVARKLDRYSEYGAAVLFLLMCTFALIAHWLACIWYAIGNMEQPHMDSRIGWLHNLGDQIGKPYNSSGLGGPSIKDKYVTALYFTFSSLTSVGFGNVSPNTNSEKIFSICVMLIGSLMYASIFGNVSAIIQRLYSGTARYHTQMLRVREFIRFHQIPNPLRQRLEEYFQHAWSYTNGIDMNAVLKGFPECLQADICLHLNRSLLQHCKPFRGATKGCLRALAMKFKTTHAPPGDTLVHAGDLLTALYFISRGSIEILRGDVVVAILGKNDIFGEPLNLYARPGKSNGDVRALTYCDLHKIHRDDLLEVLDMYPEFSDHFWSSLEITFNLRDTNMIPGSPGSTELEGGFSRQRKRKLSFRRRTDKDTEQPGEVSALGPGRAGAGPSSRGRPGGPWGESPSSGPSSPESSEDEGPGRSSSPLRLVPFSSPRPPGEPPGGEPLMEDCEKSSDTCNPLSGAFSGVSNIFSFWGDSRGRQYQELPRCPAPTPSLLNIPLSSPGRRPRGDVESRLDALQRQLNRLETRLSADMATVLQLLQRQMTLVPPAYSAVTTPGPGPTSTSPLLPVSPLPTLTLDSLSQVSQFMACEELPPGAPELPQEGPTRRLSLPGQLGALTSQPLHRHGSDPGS

SMILES	hERG current change (%, negative = inhibition) at 1uM [%]
Cc1cc(C)c2c(c1)c(C)cc1nnc(SCC(=O)NCc3ccco3)n12	12.4
CC(=O)OC[C@H]1O[C@@H](O/N=C(\C)CCN2CCCCc3nc(C)c(C)cc32)[C@H](OC(C)=O)[C@@H](OC(C)=O)[C@@H]1OC(C)=O	2.09
CCOC(=O)N1CCC(N2CCN(S(=O)(=O)c3ccc4ccccc4c3)CC2)CC1.O=C(O)C(=O)O	-4.39
CSc1nc(SCCN(C)C)c2c3c(sc2n1)COC(C)(C)C3	-2.79
CCOC(=O)c1c(NC(=S)Nc2cccc(C)c2)sc2c1CC(C)(C)SC2	-1.09
CCN(CC)C(=O)c1ccc(NC(=O)c2ccc(-n3cncn3)c([N+](=O)[O-])c2)cc1	4.18
COc1ccc(NC(=O)CN2C(=O)NC3(CCCC3)C2=O)cc1	13
COc1cccc(C(=O)NCC(=O)NCc2cc(=O)n(C)c(=O)n2C)c1OC	11.5
Cc1cc(=O)n2nc(N3CCCC3C(=O)NCCCN3CCCCC3)sc2n1 (stereo not shown)	9.73
O=C(c1cccnc1)N1CCc2ccccc21	-9.04
Cc1cccc(C)c1OCc1cc(C(=O)N2CCC(C3CCCCC3)C2)no1 (stereo not shown)	10.6
COC(=O)c1ccc(/C=N/N2CCN(Cc3ccccc3Cl)CC2)cc1	5.33
COc1cc(/C=C/C(=O)OCC(=O)N2CC3(C)CC2CC(C)(C)C3)ccc1O (stereo not shown)	-8.38
COc1ccc2nc(C)cc(Nc3cccc(C(=O)O)c3)c2c1	17.3
COc1ccc(CN2CCN(C(=O)c3cccc4ccccc34)CC2)cc1OC.O=C(O)C(=O)O	8
COc1ccc(NC(=O)COc2ccc(/C=N/NC(=O)c3cccnc3)cc2OC)cc1	-1.04
Cl.OC(COc1ccccc1)CN1CCN(CC(O)COc2ccccc2)CC1 (stereo not shown)	-19.5
Cc1cccc([C@@H]2[C@@H]3C(=O)N(Cc4ccccc4)C(=O)[C@@H]3[C@]3(Cc4ccccc4)C(=O)N(c4cccc(F)c4)C(=O)N23)c1	9.13
O=C(CN1C(=O)/C(=C\c2ccccc2F)SC1=S)Nc1nc2ccccc2s1	6.88
Cc1ccc(NS(=O)(=O)c2ccc(Br)s2)nc1	14.5
COc1cc(OC)cc(C(=O)NC(=S)NNC(=O)[C@H]2C[C@@H]2c2ccccc2)c1	9.85
O=C(Nc1cccc([N+](=O)[O-])c1)c1ccc(-c2ccccc2)cc1	0.755

— paper PMC4336329 (PLoS ONE, 2015)
